# In article PMC6919601, “Identification of Plasmodium dipeptidyl aminopeptidase allosteric inhibitors by high throughput screening” (PLoS ONE, 2019):
# “And” between values parts separate entries of the source, which are not always exact repeats. Equal values may be shown once. Out of some 110,000 compounds screened, about 230 (0.21%) showed an effect of 50% or more. The list shows a part of the results.
# Target: DPAP1 (Plasmodium falciparum, UniProt Q8IIJ9)
# Experiment: primary screen, percent inhibition; read by cleavage of a fluorogenic dipeptide substrate; higher = more effect of the substance
# Parameters: species or system P. falciparum D10 trophozoite lysates; single well
# 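Note: 30 min substrate incubation versus DMSO and 10 µM JCP410 controls.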
# Sequence of DPAP1 (Q8IIJ9 whole entry, looked up): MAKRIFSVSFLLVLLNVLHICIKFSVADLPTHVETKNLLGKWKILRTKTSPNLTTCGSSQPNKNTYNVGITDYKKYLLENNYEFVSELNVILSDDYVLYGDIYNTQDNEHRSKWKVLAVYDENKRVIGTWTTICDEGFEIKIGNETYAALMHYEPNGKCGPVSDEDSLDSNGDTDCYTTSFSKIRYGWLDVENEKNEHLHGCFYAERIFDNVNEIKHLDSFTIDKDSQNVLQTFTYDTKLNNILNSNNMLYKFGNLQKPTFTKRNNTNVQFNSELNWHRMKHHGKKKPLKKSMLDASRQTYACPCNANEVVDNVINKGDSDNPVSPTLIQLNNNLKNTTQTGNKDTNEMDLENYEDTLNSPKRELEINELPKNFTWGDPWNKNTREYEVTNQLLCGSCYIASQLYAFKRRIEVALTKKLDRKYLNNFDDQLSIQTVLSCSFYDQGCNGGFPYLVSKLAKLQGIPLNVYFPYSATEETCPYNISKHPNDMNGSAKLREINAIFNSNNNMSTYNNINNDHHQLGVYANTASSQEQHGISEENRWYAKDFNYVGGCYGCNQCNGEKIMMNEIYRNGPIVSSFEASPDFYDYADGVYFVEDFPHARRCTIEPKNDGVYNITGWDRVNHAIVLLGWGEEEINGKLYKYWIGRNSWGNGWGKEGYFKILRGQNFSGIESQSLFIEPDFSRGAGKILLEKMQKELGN
row,SMILES,% Inhibition @ 10 uM
1,COc1cc2c(cc1OC)CN(Cc1ccccc1Br)CC2,-3.65%
2,CC(C)Oc1ccc(C(=O)Nc2cccc(Cl)c2)cc1,-7.28%
3,COc1ccc(Br)cc1CN1CCc2ccccc2C1,3.1%
4,CCOC(=O)c1c(C=O)c(C)n(C)c1C,-3.78%
5,Cc1cccc2nc(-c3cccc(NC(=O)Cc4ccccc4)c3)cn12,-2.46%
6,CC1(C)CC(OC(=O)c2ccco2)CC(C)(C)N1OC(=O)CCCN1C(=O)c2ccccc2C1=O,2.18%
7,Cn1c2ccccc2c2c(C(=O)N3CCOCC3)cn(C3CCCCC3)c(=O)c21,4.87%
8,CC(C)CN1C(=O)[C@@H](NC(=O)OCc2ccccc2)CS1(=O)=O,-1.83%
9,CCCc1cc(O)n2nc(C)c(-c3ccc(Cl)cc3)c2n1,3.41%
10,O=C(NCc1cccnc1)c1ccc(Br)o1,2.6%
11,CCc1ccc(NC(=O)C2CC(=O)N(c3ccc(C)cc3)C2)cc1 (stereo not drawn),0.206%
12,Cc1[nH]c2ccc(C(=O)NCCN3CCN(C)CC3)cc2c1C,5.54%
13,O=C(Cn1ncc2c(=O)oc3ccccc3c21)Nc1cnc2ccccc2c1,4.01%
14,N#Cc1cccc2c3c([nH]c12)CCCC3,-0.693%
15,Cc1cccc(Oc2nc3ccccn3c(=O)c2/C=C(\C#N)C(=O)NCc2ccco2)c1C,-1.43%
16,Cc1ccc(-c2cc3nc(C)c(-c4ccccc4)c(N)n3n2)cc1,3.16%
17,C=CCNC(=O)C1C2C=CC3(CN(Cc4ccccc4Cl)C(=O)C13)O2 (stereo not drawn),-2.26%
18,Cc1ccc2cc(NC(=O)CN3c4cccc5cccc(c45)S3(=O)=O)ccc2n1,7.87%
19,Cc1ccc(C(=O)N2c3ccccc3C=CC2C#N)cc1 (stereo not drawn),0.408%
20,COc1ccc(NC2=C(Cl)C(=O)N(c3ccccc3)C2=O)cc1,2.38%
21,Cc1ccc2oc(C(=O)N(Cc3ccc(C)o3)C3CCS(=O)(=O)C3)c(C)c2c1 (stereo not drawn),0.569%
22,CCOc1ccccc1/C=C1/S/C(=N\c2ccccc2)N(C)C1=O,2.05%

row,SMILES,% Inhibition @ 10 uM
1,Cc1cccc(C(=O)Nc2cc(C)c(C)cc2O)c1,-5%
2,Cc1ccc(O)c(C(=O)CC(=O)c2ccccc2C)c1,2.79%
3,CC(=O)c1c(O)c(C)c(-c2ccccc2)n(-c2ccccc2)c1=O,1.43%
4,CCOC(=O)N1CCN(c2c(N3CCC(C)CC3)c(=O)c2=O)CC1,1.93%
5,O=C(NCc1ccc2c(c1)OCO2)c1cccc(Cl)c1,-5.49%
6,COc1ccc(C(NC(C)=O)c2nccc3cc(OC)c(OC)cc23)cc1OC (stereo not drawn),-2.19%
7,C1=C(c2ccccc2)CCN(c2ncnc3c2nc2n3CCCCC2)C1,-1.87%
8,COc1ccc(N2CCN(CC(O)COC(C)C)CC2)cc1 (stereo not drawn),0.408% and 6.78%
9,CCOC(=O)N1CCN(c2cnn(-c3nc4ccccc4s3)c(=O)c2Cl)CC1,13.2%
10,CN(C)c1ccc(CN2CCN(c3cccc(C(F)(F)F)c3)CC2)cc1,-1.86%
11,CS(=O)(=O)N(CC(=O)N1CCCCCC1)c1ccc(Cl)c(C(F)(F)F)c1,1.82%
12,O=C(NC1CCC(NC(=O)C2CCCO2)CC1)C1CCCO1 (stereo not drawn),1.08%
13,O=C(C1CCC(CNS(=O)(=O)c2ccccc2)CC1)N1CCC2(CC1)OCCO2 (stereo not drawn),-0.971%
14,c1csc(-c2nnc(-c3ccccc3-n3cnnn3)o2)c1,-1.07%
15,O=C(c1cccc(S(=O)(=O)N2CCOCC2)c1)N1CCOCC1,17%
16,O=C(Nc1ccc(Cl)cc1)Nc1cccc(F)c1,-2.12%
17,Oc1ccccc1-c1nc(O)c2ccccc2n1,-0.239% and 3.53%
18,NC(=O)c1ccc(-n2nc(C(F)(F)F)c3c2CCCC3)cc1,0.776%
19,Cc1ccc(C)n1-c1ccc(C(=O)O)c(O)c1,2.73%
20,COc1ccc(CCN(C)CC(=O)Nc2c(C)cc(C)cc2C)cc1OC,-3.55%
21,COc1ccc(-c2noc(N3CCCC(C(=O)NCCN4CCOCC4)C3)n2)cc1 (stereo not drawn),-3.95%
22,COc1cc(C)ccc1OCCSc1nc(-c2cccs2)nc2cc(=O)[nH]n12,-0.477%

row,SMILES,% Inhibition @ 10 uM
1,COc1ccc(OC)c(-n2nnc(-c3nc(-c4cccs4)no3)c2N)c1,-2.72%
2,CCCn1c(=N)c(C(=O)OCC)cc2c(=O)n3cc(C)ccc3nc21,3.6%
3,O=C(O)/C=C\C(=O)Nc1cccc([N+](=O)[O-])c1,-2.02%
4,CN(C)c1ccc(/C=C/c2nc(O)c3ccccc3n2)cc1,3.05%
5,COc1cccc(CN2CCN(Cc3cccc(F)c3)CC2)c1OC,-1.65%
6,CCCCN(C)CCCNC(=O)C1CCN(S(=O)(=O)N2CCC3(CC2)OCCO3)CC1,-0.0542%
7,CC(=O)N1N=C2C3CCN(CC3)C2C1c1cccc([N+](=O)[O-])c1 (stereo not drawn),3.15%
8,CNc1ccc2c(O)cc(S(=O)(=O)O)cc2c1,-8.13%
9,O=C(O)CCNS(=O)(=O)c1ccc2[nH]c(O)nc2c1,0.0289%
10,COc1cc(NC(=O)CCC(=O)O)cc2c(CCN)c[nH]c12,-3.58%
11,O=S(=O)(c1ccc(Cl)cc1)N1CCN(c2ccccc2)CC1,-4.91%
12,O=C(O)C#Cc1cccc2ccccc12,1.42%
13,CCCn1c2ccccc2c2cnn(CC(=O)NC(C)CCc3ccco3)c(=O)c21 (stereo not drawn),5.24%
14,CCCn1c(=N)c(S(=O)(=O)c2ccc(C)cc2)cc2c(=O)n3ccccc3nc21,3.99%
15,CCCCCCSc1nnc2c(n1)[nH]c1ccccc12,-2.35%
16,O=C(CSc1nc(O)c2cnn(-c3ccc(Cl)cc3)c2n1)NC1CCCCC1,3.53%
17,O=C(c1ccco1)N1CCN(C(=O)C2CC(c3ccc(F)cc3)=NO2)CC1 (stereo not drawn),-3.94%
18,O=S(=O)(NCC1CCCO1)c1ccc(Cl)cc1 (stereo not drawn),-6.86%
19,O=C(O)c1ccccc1CCc1ccc(Cl)s1,4.67%
20,CCOc1ccc(CCNS(=O)(=O)c2cccc3nsnc23)cc1OCC,-6.84%
21,Cc1ccc(CN2CCN(c3ccccc3Cl)CC2)o1,-2.21%
22,CC1CCc2c(C(=O)NCCCc3ccccc3)csc2C1 (stereo not drawn),-1.44%
